Experimental data published in paper PMC11999137.
These are yes or no findings as the source states them, for the method shown. In cells and extracts the contact can be indirect.

Molecular target: NFκB transcription factor p65/RelA (human (endogenous in resting CD4+ T cells and PHA-treated T cells from PBMC)), Q04206
Assay: co-IP
Settings: remark: other sources report otherwise

binding: no binding
B1: IκBα, P25963 1-317 (protein)
chain: MFQAAERPQEWAMEGPRDGLKKERLLDDRHDSGLDSMKDEEYEQMVKELQEIRLEPQEVPRGSEPWKQQLTEDGDSFLHLAIIHEEKALTMEVIRQVKGDLAFLNFQNNLQQTPLHLAVITNQPEIAEALLGAGCDPELRDFRGNTPLHLACEQGCLASVGVLTQSCTTPHLHSILKATNYNGHTCLHLASIHGYLGIVELLVSLGADVNAQEPCNGRTALHLAVDLQNPDLVSLLLKCGADVNRVTYQGYSPYQLTWGRPSTRIQQQLGQLTLENLQMLPESEDEESYDTESEFTEFTEDELPYDDCVFGGQRLTL
